Reference: paper PMC7819943, “Rice protein-binding microarrays: a tool to detect cis-acting elements near promoter regions in rice”
Some of the results follow.

Each sequence was assayed against T1, OsWOX13 (Oryza sativa, UniProt Q5QMM3 1-267) (assay: protein-binding microarray (RPBM); PBS, 2% BSA, 51.3 ng/ul salmon testes DNA, 50 uM zinc acetate, 200 nM TF, 25 C, 1 h; high values mean tight binding). Details: protein: recombinant; tags: N-terminal polyhistidine and DsRed monomer fusion (pET32a); label: CyDye5-dUTP incorporated in the synthesized complementary strand; 3' TTTTT single-stranded linker to array surface; dsDNA, one strand shown.
T1 sequence: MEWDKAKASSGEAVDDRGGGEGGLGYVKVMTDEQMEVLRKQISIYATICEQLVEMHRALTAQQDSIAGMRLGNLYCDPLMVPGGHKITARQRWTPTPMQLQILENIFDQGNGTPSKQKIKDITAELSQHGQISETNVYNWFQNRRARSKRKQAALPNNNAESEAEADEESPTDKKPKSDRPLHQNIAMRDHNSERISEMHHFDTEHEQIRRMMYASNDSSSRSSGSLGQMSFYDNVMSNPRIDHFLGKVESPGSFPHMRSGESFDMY
How it was run: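 Transcription factors, each fused N-terminally to a polyhistidine tag and DsRed, were expressed in E. coli BL21-CodonPlus and purified on Ni–NTA. A custom Agilent array was made double-stranded by primer extension with Cy5-dUTP and blocked with 2% BSA. It was incubated with 200 nM protein in PBS, 2% BSA, salmon testes DNA and 50 µM zinc acetate at 25 °C for 1 h, then washed. The binding signal is per-feature fluorescence intensity (arbitrary units) read on an Axon 4000B scanner.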

Sequence | binding signal
ATATCAATTTCCTTAACCGAATATAGCAAGAATCCGACAACGGAGTCACCTAGTGCAG | 3870 fluorescence intensity (a.u.)
CAAAATTTAACTTCTATAAATTGTAACAAAAGTAACAAATCGGAGTCACCTAGTGCAG | 8360 fluorescence intensity (a.u.)
CTTAACTTGATAATCTTTCTTAAGTCCCTAAATGTAAGTTCGGAGTCACCTAGTGCAG | 6620 fluorescence intensity (a.u.)
TATAAGCCAGTTGGGATCAATCAGGCTAGCAAACAGAGGACGGAGTCACCTAGTGCAG | 4530 fluorescence intensity (a.u.)
GCTATGACCATTTCACTTAATTAAGTAACTGAATAAATATCGGAGTCACCTAGTGCAG | 9310 fluorescence intensity (a.u.)
GTAGTTTTCATTAATGTTTAATCAGCTCTATATATTTGAACGGAGTCACCTAGTGCAG | 3320 fluorescence intensity (a.u.)
AAATACTAGAATGATTTACATTATGAAACGGAGGGAGTACCGGAGTCACCTAGTGCAG | 4500 fluorescence intensity (a.u.)
CTTTAGATGAAAATTAAGTTCGAACCAAACCATTGGTGCACGGAGTCACCTAGTGCAG | 5140 fluorescence intensity (a.u.)
CTTTCCAAATTAGTTGCGGGAATGGAATCCTATCAATCTCCGGAGTCACCTAGTGCAG | 3900 fluorescence intensity (a.u.)
ATCAATTATCTATGCAGAAGAAAATATATATCCCTCCATGCGGAGTCACCTAGTGCAG | 3520 fluorescence intensity (a.u.)
TTTCCTAATTATAAAGGCGCGCGGAAGGGGCGAGCGCTGACGGAGTCACCTAGTGCAG | 4850 fluorescence intensity (a.u.)
TTTGATTTGGCCATATGAATACTCCCAACTTTCATACCGACGGAGTCACCTAGTGCAG | 14900 fluorescence intensity (a.u.)
ACACTACTAATTACCAACATATGTGGCACGAGAACATCTACGGAGTCACCTAGTGCAG | 6460 fluorescence intensity (a.u.)
GATTTAACGTTACATATCAATCTAAGAGTAGGATGGTACACGGAGTCACCTAGTGCAG | 9230 fluorescence intensity (a.u.)
ATAAAACTGGTAAATTGATGAGCGCGTCTAACGGCGGTCGCGGAGTCACCTAGTGCAG | 42100 fluorescence intensity (a.u.)
TGGATTGATACTTTGAGGTATAAAATAGTTTGAAGTGATACGGAGTCACCTAGTGCAG | 6880 fluorescence intensity (a.u.)
TTATTTGCATTGATTTAATAGGGTTTACTCTTGCTTTGCACGGAGTCACCTAGTGCAG | 7870 fluorescence intensity (a.u.)
CTAAGCAATCGTGCTTCTGTCAACACATGTGATTAGGGATCGGAGTCACCTAGTGCAG | 6230 fluorescence intensity (a.u.)
CGTGCGATTAGATTAATCTTGGAGATTTATCTTAACACGACGGAGTCACCTAGTGCAG | 13000 fluorescence intensity (a.u.)
AGGGTTGCGAGGTGGAGGTGATTGGCTCTACGCCATGGCGCGGAGTCACCTAGTGCAG | 4420 fluorescence intensity (a.u.)
CGTTCGTCAATTTACCCGCGACAATAAATGTTCCATTGAGCGGAGTCACCTAGTGCAG | 9650 fluorescence intensity (a.u.)
CCCAAATATACCAATTATTTATTCACCATCTCAACCCTAGCGGAGTCACCTAGTGCAG | 9490 fluorescence intensity (a.u.)
AGGCAAATTGTATATACTAAACACAAGTGCCCCGAAAAGTCGGAGTCACCTAGTGCAG | 3760 fluorescence intensity (a.u.)
